Assay results as given in publication PMC4242493.
The other results are listed elsewhere or left out. The list includes weakly bound sequences.

The sequences below were run against MaxL homodimer (UniProt P61244) (assay: universal protein-binding microarray (PBM)). Details: PBS-based mixture, 10 nM His-tagged protein dimer, 2% milk, 200 ng/uL BSA, 50 ng/uL salmon testes DNA, 0.02% TX-100; detection with Alexa 488 anti-His …; high values mean tight binding; most listed sequences are background and not binding sites; double strand, one strand shown.
Chain of UniProt P61244 (P61244 whole entry): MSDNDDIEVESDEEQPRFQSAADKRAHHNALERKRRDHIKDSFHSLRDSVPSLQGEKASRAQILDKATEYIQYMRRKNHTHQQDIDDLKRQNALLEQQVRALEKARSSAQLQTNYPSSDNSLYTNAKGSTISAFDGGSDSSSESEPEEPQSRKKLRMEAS
Work on GTAACGAA yielded a binding signal (normalized occupancy) of 0.0794. GTCACGAC gave a binding signal (normalized occupancy) of 0.0754. Sequence CGAATCTC has a binding signal (normalized occupancy) of 0.0732. Sequence AGATGTTG has a binding signal (normalized occupancy) of 0.0819. Sequence CGAAGAAC has a binding signal (normalized occupancy) of 0.0705. For CCCAGTTC, the binding signal (normalized occupancy) was 0.0708. CTCGGTGC showed a binding signal (normalized occupancy) of 0.0712. Sequence CAAACACG has a binding signal (normalized occupancy) of 0.0897. Work on ACCATGGC yielded a binding signal (normalized occupancy) of 0.0734. For AGCCGGGA, the binding signal (normalized occupancy) was 0.0687. In the case of GATTGCAC, the binding signal (normalized occupancy) is reported as 0.0761. Work on ACGACTCC yielded a binding signal (normalized occupancy) of 0.0749. Sequence AACGAAGC has a binding signal (normalized occupancy) of 0.0706. ACCACGCC was tested, and the binding signal (normalized occupancy) was 0.102. ATGTAGCC showed a binding signal (normalized occupancy) of 0.0773. For ATCCTTGG, the binding signal (normalized occupancy) was 0.0721. CGGAGACC gave a binding signal (normalized occupancy) of 0.069. Sequence ACGTGTCA has a binding signal (normalized occupancy) of 0.0923. CCTTGAAA was tested, and the binding signal (normalized occupancy) was 0.0716. In the case of AGACTTCA, the binding signal (normalized occupancy) is reported as 0.075. For AGCTCTGC, the binding signal (normalized occupancy) was 0.0685. GGCTTCGA gave a binding signal (normalized occupancy) of 0.0706. AGTATCGA gave a binding signal (normalized occupancy) of 0.0752. ATGCCGTG was tested, and the binding signal (normalized occupancy) was 0.0804. AGGACCTG was tested, and the binding signal (normalized occupancy) was 0.0688. AGAATCCC showed a binding signal (normalized occupancy) of 0.0764. With CCCATTGA the binding signal (normalized occupancy) was 0.0764. In the case of ATCGCACC, the binding signal (normalized occupancy) is reported as 0.0771. Sequence AACAGTAC has a binding signal (normalized occupancy) of 0.0779. GGGCGTGA showed a binding signal (normalized occupancy) of 0.0932. CGAGAGCA was tested, and the binding signal (normalized occupancy) was 0.0754. Sequence CTTGCTTA has a binding signal (normalized occupancy) of 0.0751. CGGCCCCG gave a binding signal (normalized occupancy) of 0.0693. CCCGTCCG was tested, and the binding signal (normalized occupancy) was 0.0722. In the case of ATAAGTCC, the binding signal (normalized occupancy) is reported as 0.0745. Work on GAACCTGA yielded a binding signal (normalized occupancy) of 0.0758. Work on GACAGCGC yielded a binding signal (normalized occupancy) of 0.0686. ACTCCTTC was tested, and the binding signal (normalized occupancy) was 0.0708. Work on GTCAATTA yielded a binding signal (normalized occupancy) of 0.0712. AATCCTGC showed a binding signal (normalized occupancy) of 0.0719. With AACCCCAA the binding signal (normalized occupancy) was 0.0752. AGTTGTGG was tested, and the binding signal (normalized occupancy) was 0.0789. CCAGTTAA showed a binding signal (normalized occupancy) of 0.0685. In the case of CCAAGGGG, the binding signal (normalized occupancy) is reported as 0.0697. GCAGAGGC gave a binding signal (normalized occupancy) of 0.0685. GCGAGAGC gave a binding signal (normalized occupancy) of 0.0688. For GAGCGCAC, the binding signal (normalized occupancy) was 0.0721. With AACCCGAT the binding signal (normalized occupancy) was 0.0713. Work on CCAACCCC yielded a binding signal (normalized occupancy) of 0.0798. CATGAGAC was tested, and the binding signal (normalized occupancy) was 0.0947. CGATGAAG was tested, and the binding signal (normalized occupancy) was 0.0793. Sequence AAATACAC has a binding signal (normalized occupancy) of 0.0854. Sequence ACCCACAG has a binding signal (normalized occupancy) of 0.0767. AGTTACTA gave a binding signal (normalized occupancy) of 0.073. Work on AATCAATA yielded a binding signal (normalized occupancy) of 0.0734. With CCCTACCC the binding signal (normalized occupancy) was 0.0777. With ACGCTGCG the binding signal (normalized occupancy) was 0.077. Sequence AATCATAC has a binding signal (normalized occupancy) of 0.0806. TCCTCACA showed a binding signal (normalized occupancy) of 0.0783. CGCGTGTC gave a binding signal (normalized occupancy) of 0.115. Sequence GAGAACTC has a binding signal (normalized occupancy) of 0.0704. GCGGTGGA was tested, and the binding signal (normalized occupancy) was 0.0704. AGATTTTC gave a binding signal (normalized occupancy) of 0.0729. AGCAGGTG was tested, and the binding signal (normalized occupancy) was 0.0935. In the case of AGCACAAA, the binding signal (normalized occupancy) is reported as 0.0742. Sequence ACCTTTGA has a binding signal (normalized occupancy) of 0.076. For ACAATCCT, the binding signal (normalized occupancy) was 0.0736. ACTTGGAC showed a binding signal (normalized occupancy) of 0.0719. Sequence AGGCTGAT has a binding signal (normalized occupancy) of 0.0742. In the case of AAGACACC, the binding signal (normalized occupancy) is reported as 0.0757. With CCAATGAC the binding signal (normalized occupancy) was 0.0707. For GTACTGAC, the binding signal (normalized occupancy) was 0.0742. With GACCGTGC the binding signal (normalized occupancy) was 0.0746. AAAGGCTA was tested, and the binding signal (normalized occupancy) was 0.0707. With GACACCCC the binding signal (normalized occupancy) was 0.0775. In the case of AGAGAGAC, the binding signal (normalized occupancy) is reported as 0.0677. GAATACTC gave a binding signal (normalized occupancy) of 0.0801. In the case of CCAATCAC, the binding signal (normalized occupancy) is reported as 0.0792. AGTGGGAT gave a binding signal (normalized occupancy) of 0.0804. GGAAAATA gave a binding signal (normalized occupancy) of 0.0797. CCACTCTA was tested, and the binding signal (normalized occupancy) was 0.0773. With CCACAGTA the binding signal (normalized occupancy) was 0.0757. With TAACCAAA the binding signal (normalized occupancy) was 0.0763. For GTAGTCCA, the binding signal (normalized occupancy) was 0.0722. GAAAATAC showed a binding signal (normalized occupancy) of 0.0736. Work on CACGTGGG yielded a binding signal (normalized occupancy) of 0.707. Sequence ATAAATGA has a binding signal (normalized occupancy) of 0.0825. ATTCCCGG was tested, and the binding signal (normalized occupancy) was 0.0687. Work on TATACTAA yielded a binding signal (normalized occupancy) of 0.082. With CACATTAA the binding signal (normalized occupancy) was 0.0866. With ACCGATAA the binding signal (normalized occupancy) was 0.0716. ACCGGACG was tested, and the binding signal (normalized occupancy) was 0.0706. With AACCTGTC the binding signal (normalized occupancy) was 0.0786. For CTGACGGC, the binding signal (normalized occupancy) was 0.0673.
